Data from the supplement of paper PMC11417369.
± gives the standard deviation of the averaged measurements. The list shows a part of the results.

These sequences were tested on PfAP2-LT AP2 domain (GST-tagged) (assay: gcPBM binding intensity (ln(normalized median fluorescence intensity)); higher = stronger DNA binding).
Procedure, shortened: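 GST-fused DNA-binding domains of P. falciparum, expressed in E. coli, were applied at about 25 μg on average for 1 h to an Agilent 4 × 180k array of primer-extended double-stranded 36-bp intergenic genomic probes and negative controls. Binding intensity is the highest Masliner-normalised natural-log median intensity across replicate spots of either probe orientation, measured with Alexa488 anti-GST antibody and a 488 nm scan.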

Row | Sequence | gcPBM binding intensity (ln)
1 | AAAATACATAAACACACACACACACCGATATATATA [CACACA_site9186] | 10.43 ± 0.092
2 | CACAAACACCCAAACACACACACACCGACATACATA [CACACA_site4410] | 10.1 ± 0.46
3 | AAATTGTCAAAACACGCACACACATATACATAATAA [CACACA_site1743] | 9.62 ± 0.36
4 | GTGATACGCTATAGGACACACGCTTAATAATTATAA [CACACA_site1694] | 8.77 ± 0.44
5 | ATCATAAATTATTATACACACAATACGTGACCTATT [CACACA_site1906] | 9.13 ± 0.41
6 | TCTTTTATATTGTAGAGTACATATTTTCAATATATA [XGTACX_site5586] | 8.47 ± 0.46
7 | TTCTTTTATAAAAGTAGTACAATTATATTGTAATTA [XGTACX_site2855] | 8.36 ± 0.48
8 | TTCCTCTTAATATGTGCACACTAAATTATAACATAA [CACACA_site3260] | 8.93 ± 0.41
9 | TATAGTTTTATTATTTATGTGTTAAAATTATACAAG [TGCATGCA_negctrl_site246] | 8.46 ± 0.47
10 | CATACCATACATAAAACACACAAAATTTACATAATA [CACACA_site3100] | 9.12 ± 0.43
11 | ACCCATTTTAATTTAGTGCACATTTTACCTTTATAC | 9.16 ± 0.43
12 | AAAAAAATAACAAAGTGTACTTTTATATTTTACATA [XGTACX_site8954] | 8.41 ± 0.48
13 | TTCTGCAGCAATGTTTTTTTTAAATATTTATATGGT [CACACA_negctrl_site1815] | 8.71 ± 0.42
14 | TTTTTTTCTTTTTCAAAAAAAAAAAAAAAAAAAATA [GTGCAC_negctrl_site329] | 7.66 ± 0.4
15 | GCTAGTTTTTTTTGGCGTACAGTACCGGTTTACTTT [XGTACX_site2606] | 9.14 ± 0.38
16 | TTTAATTCCATAAGTAAACACACAAATGCCAAAATT [CACACA_site9049] | 8.91 ± 0.4
17 | AATATTTATAAATTTACACACACACGGGTGAACATA [CACACA_site6979] | 9.4 ± 0.27
18 | ATTCTAAATTAAAATACACACATATATACATAATAT [CACACA_site2792] | 8.94 ± 0.42
19 | AAAAAAAAAAAAAAATGTACATATTAAGTATAATTA [XGTACX_site4616] | 8.62 ± 0.54
20 | CAATTTGGTGTACAGGTGCACATGCCTCACGATAAA [GTGCAC_site9650] | 9.04 ± 0.38
21 | TTAGCTCAATTTTTGGGTACACACAAATGTATAATA [XGTACX_site5003] | 8.82 ± 0.38
22 | GAAAAATGTAAATACATATATGTACACAAATATATA [GTGCAC_negctrl_site557] | 8.93 ± 0.35
23 | TATGTATGCCTGTTTTGTACTTAAGAAAATGTTGCT [XGTACX_site8443] | 8.88 ± 0.38

Row | Sequence | gcPBM binding intensity (ln)
24 | AAAAAAAAAAAAAAAAGTACATAATATAAAATCTAA [XGTACX_site6019] | 8.51 ± 0.71
25 | TATGTAAAAACAGGCACACATATATCATATATATAT [CACACA_site619] | 9.11 ± 0.42
26 | AAAAAAAAATATCACACACACATAAATATAAACCAA [CACACA_site2279] | 9.64 ± 0.21
27 | AGAGCATAATAAAACACACACATACATACATATATA [CACACA_site935] | 9.63 ± 0.25
28 | ATTGGGTTCATCAGCACACACAACATCATGTAATAA [CACACA_site5093] | 9.31 ± 0.51
29 | TAAAACATCAAGGGGTGTACAAAAAAGATGAACAGG [XGTACX_site6929] | 9.01 ± 0.42
30 | AAAAAAAAAAAAACTACACACATAAAATATATTGTG [CACACA_site805] | 8.94 ± 0.38
31 | AGGCACTTATAATAATGTACATAAATAAAAAGAAAA [XGTACX_site6037] | 8.79 ± 0.56
32 | TATAAATATATATGTACACACATATACATGTTGAAT [CACACA_site3118] | 9.05 ± 0.42
33 | TATAAACATAAATATACACACAAACATCTATGTATT [CACACA_site4804] | 9.11 ± 0.33
34 | ATTTGTAATATTAAATGTACAGGTAAGAAATATCAG [XGTACX_site1562] | 8.77 ± 0.42
35 | TAAGGAAAAAAAATATGTACTTATAGTTCCTTCTTT [XGTACX_site2202] | 8.6 ± 0.51
36 | GGATTCAAAAAAAAAAATAAAAGTAAATAATAAATA [TGCATGCA_negctrl_site348] | 8.44 ± 0.43
37 | TAAATATATTTATACACACACACCAAAGCAATAGAT [CACACA_site7393] | 9.76 ± 0.34
38 | ATTACAACATTTTATACACACGTGATTATTAATTTT [CACACA_site5581] | 8.97 ± 0.38
39 | TTCAATATACATATGTGTACTAAAATAAATAGAAAA [XGTACX_site5708] | 8.61 ± 0.44
40 | AAGAACAGAACGTACACACACATATTTATATTTATA [CACACA_site7594] | 9.55 ± 0.3
41 | TTTATGAAGTAAAAATATAAATTCACAAAGTTAAAA [CACACA_negctrl_site1476] | 8.53 ± 0.48
42 | TATATTTCAGGGGGGAGTACAAATTTTTTTATATAA [XGTACX_site1600] | 9.96 ± 0.4
43 | TTTTCAAAGATATATACACACATGCATATTACGGTG [CACACA_site6505] | 9.07 ± 0.43
44 | TTAATAAATATCAATACACACACACTAATGTGAATA [CACACA_site9254] | 9.24 ± 0.2
45 | TTTTTGAGTGCACATACACACAGACATACATTTAAA [CACACA_site5813] | 8.97 ± 0.3
